The values that follow come from ChEMBL document CHEMBL1156829.

Several values for one entry are separate records, joined by “and”; a condition that tells them apart may be missing. Equal values may be shown once. The full ranking holds about 5,400 compounds; the median of “IFI” is about 2, and the highest 2% start at about 22. Some of the results follow.

A short description of the assay: NOVARTIS: Inhibition Frequency Index (IFI) - the number of HTS assays where a compound showed > 50% inhibition/induction, expressed as a percentage of the number of assays in which the compound was tested. The class given is functional.
Compound `O=C(NCCC(c1ccccc1)c1ccccc1)c1cccc([N+](=O)[O-])c1` came in with an IFI of 0%.
For the compound `COc1ccc(C(=O)Nc2ccc3nsnc3c2)cc1OC`, the IFI amounted to 4.22%.
As for `CC1CC(C)CN(c2ccc([N+](=O)[O-])cc2-c2nnn[nH]2)C1` (centres undefined), the IFI is 0%.
Compound `O=C(NCc1ccc2c(c1)OCO2)C1CNCC1c1ccc(C(F)(F)F)cc1` (centres undefined) registered an IFI of 1.37%.
Compound `COc1cccc(Cn2c(C)nc3cc(NC(=O)Nc4ccccc4)c(C)nc32)c1` returned an IFI of 0%.
In turn, `N=c1n(CCN2CCCCC2)c2ccccc2n1CC(O)c1ccc(Cl)c(Cl)c1` (centres undefined) came in with an IFI of 9.52%.
`CCOC(=O)c1ccc(OCC2c3cc(OC)c(OC)cc3CCN2C(=O)Nc2ccc(Cl)cc2)cc1` (centres undefined): the IFI worked out at 4.84%.
`c1ccc(CN2CCC(NCc3c[nH]c4ccccc34)CC2)cc1` showed an IFI of 0%.
On to `CC(C)(C)C(=O)Cn1ccc(=N)c2ccccc21`, for which the IFI was found to be 0%.
`COc1cc(OC)cc(C(=O)NCC2Cc3cc(Cl)cc(-c4ccncc4)c3O2)c1` (centres undefined) had an IFI of 0%.
Regarding `COc1ccccc1Nc1nc(NCc2ccccc2)c2ccccc2n1`, the IFI turned out to be 7.14%.
Next, `Oc1cccc(-c2nc(-c3ccccc3)c(-c3ccc4oc5ccc(-c6[nH]c(-c7cccc(O)c7)nc6-c6ccccc6)cc5c4c3)[nH]2)c1`: 0%; `Oc1ccccc1-c1nc2ncccn2c1Nc1cccc(C(F)(F)F)c1`: 14.3%.
Turning to `COc1cc2c(N3CCOCC3)cc(O)c(CC(=O)Nc3ccccc3)c2cc1OC`, the IFI worked out at 4.41%.
Next, `CSc1nc2nc(C)c(Cc3cccc(F)c3)c(C)n2n1`: 1.28%; `CCCc1nc2ccc(NC(=O)NCC)cc2c(=O)n1Cc1ccc(-c2ccccc2)cc1`: 7.27%.
As for `Oc1ccc(-c2ccnc3cc(Cl)ccc23)cc1CNCCCn1ccnc1`, the IFI stood at 4.31%.
On to `CC(C)CCNCC(O)Cn1c2ccc(Cl)cc2c2cc(Cl)ccc21` (centres undefined), for which the IFI is 5.88%.
`CCC(=O)Nc1ccc(C(=O)NN=Cc2cc([N+](=O)[O-])ccc2O)cc1` gave an IFI of 0%.
Compound `Cc1cccc(N=C2NC(=O)/C(=C\c3ccc(N(C)C)cc3)S2)c1` showed an IFI of 11.8%.
For `Cc1ccc(NC(=O)C2CSC(c3cccc(F)c3)N2C(=O)c2ccc(C(C)(C)C)cc2)cc1C` (centres undefined), the IFI was found to be 4.25%.
For `CCOC(=O)c1cnc2ccc(OC)cc2c1O`, the IFI is 1.56% and 1.16%.
Next, `O=C1C2C(C(=O)N1Cc1ccccc1)C1(c3ccccc3)C(=O)C2(c2ccccc2)C(c2ccccc2)=C1c1ccccc1` (centres undefined): 0%; `CCc1cc(=O)n(C)c(SC(CC)C(=O)Nc2ccc(F)cc2)n1` (centres undefined): 3.12%; `COc1ccc(CN2CCC(C(=O)Nc3ccc(Oc4cccnc4)cc3)CC2)cc1`: 0%.
The figure for `O=C(O)CCCNC(=O)C(O)(c1ccccc1)c1ccccc1` is 0%; for `CN(C)c1cc[n+](Cc2ccccc2)cc1` it is 1.54%.
The compound `CCOc1ccc(N(C(=O)C2COc3ccccc3O2)C(C(=O)NC2CCCCC2)c2cn(C)nc2C)cc1` (centres undefined) registered an IFI of 1.71%.
The compound `Oc1cccc(C=Nc2ccccc2)c1O` showed an IFI of 2.44%.
Take `CCN1CCC(Nc2ccnc3cc4ccccc4cc23)CC1`: the IFI was found to be 9.09%.
In turn, `CCCN1CCN(CCCNC(=O)c2ccc3c(c2)sc2nc(-c4ccc(OC)cc4)cn23)CC1` had an IFI of 0%.
Next, `O=C(NCCCN1CCCC1=O)C(=O)NCC(c1ccco1)N1CCOCC1` (centres undefined): 2.22%; `CNc1nc(NN=Cc2cc([N+](=O)[O-])ccc2O)nc(Nc2cccc(C(F)(F)F)c2)n1`: 2.3%; `CCOc1ccc(NC(=O)C(C)Sc2nc3ccccc3[nH]2)cc1` (centres undefined): 0%.
In turn, `CC(=O)N(C1=C(N2CCCCC2)C(=O)c2ccccc2C1=O)c1ccc(F)c(F)c1` had an IFI of 0%.
The compound `CCN(CC)CCCNc1nc2cc(OC)c(OC)cc2c2nc(-c3ccccc3)nn12` returned an IFI of 8.33%.
In turn, `O=C(Nc1cc(C(=O)N2CCC(Cc3ccccc3)CC2)ccc1N1CC2CC(C1)c1cccc(=O)n1C2)c1cccs1` (centres undefined) registered an IFI of 0%.
Compound `COc1ccc2nc3cc(Cl)ccc3c(NCCN(CCN)CCN)c2c1` came in with an IFI of 14.5%.
`CCOc1ccc(-c2noc(-c3ccncc3)n2)cc1OCC` gave an IFI of 0%.
Next, `COc1cc(NC(C)CCCN(Cc2ccccc2OC)C(=O)c2cccc(Br)c2)c2ncccc2c1` (centres undefined): 3.81%; `CCN1/C(=C/c2ccc3ccccc3[n+]2CC)Sc2cc(NC(C)=O)ccc21`: 8.33%.
For `CCCCCCN(C(=O)Nc1cccc(C#N)c1)C(CC)c1nc2ccccc2c(=O)n1CCC(=O)OC` (centres undefined), the IFI worked out at 1.85%.
Compound `CC(C)(C)NC(=O)c1cn(C2CCCCC2)cc(C(=O)NC2CCN(Cc3ccccc3)C2)c1=O` (centres undefined) displayed an IFI of 0.971%.
Compound `Cc1ccc(-n2c(SCc3cccc(C)c3)nnc2C(Cc2ccccc2)NC(=O)NC(C)(C)C)cc1` (centres undefined) had an IFI of 1.09%.
The figure for `CCOC(=O)c1ccc2c(c1)[C@@H]1C=CC[C@@H]1[C@H](c1ccc(OC)c([N+](=O)[O-])c1)N2` is 0%; for `COc1cc(NC(C)CCCN(Cc2ccc(Cl)cc2)C(=O)c2ccc(Cl)cc2Cl)c2ncccc2c1` (centres undefined) it is 6.48%.
With `Fc1ccc(C2(CCCSc3nnc4c(n3)[nH]c3ccccc34)OCCO2)cc1`, the IFI was 4.67%.
As for `C=C[C@H]1CN2CC[C@H]1C[C@H]2[C@H](O)c1ccnc2ccc(OC)cc12`, the IFI was 2.01% and 2.63%.
With `O=C1Nc2ccccc2C12Nc1ccccc1-c1nc3ccccc3n12` (centres undefined), the IFI was found to be 0%.
Turning to `CN1c2ccccc2N(C)C1c1ccco1`, the IFI is 1.43%.
The figure for `CC(C)CN(CC(O)CN(CCN1CCOCC1)S(=O)(=O)Cc1ccccc1)C(=O)C1CCCN1C(=O)OC(C)(C)C` (centres undefined) is 1.96%.
In turn, `Cc1cccc(C)c1NC(=O)N1CCN(C2CCCCC2)CC1` registered an IFI of 0%.
The compound `CC1CCCN(Cc2nnnn2-c2ccc(Cl)cc2)C1` (centres undefined) came in with an IFI of 0%.
In turn, `COC(=O)c1sc(-c2ccccc2)cc1NC(=O)c1ccc(S(=O)(=O)N2CCCCCC2)cc1` yielded an IFI of 0%.
On to `c1ccc(CN2CCC(Nc3ncnc4cc(-c5ccccc5)sc34)CC2)cc1`, for which the IFI was 3.47%.
The figure for `O=C(NCC1CCCO1)c1ccc([N+](=O)[O-])cc1Cl` (centres undefined) is 0%.
Compound `COc1cc(/C=C2/SC(=Nc3ccccc3)NC2=O)ccc1OCc1ccccc1Cl` returned an IFI of 2.3%.
Next, `Cc1nc2sccn2c1-c1csc(Nc2ccccn2)n1`: 6.77%.
Compound `Cc1ccccc1N1C(=O)C2C3c4ccccc4C(C(=O)O)(c4ccccc43)C2C1=O` (centres undefined) displayed an IFI of 0%.
`COc1cc(NC(C)CCCN(Cc2ccccc2OC)C(=O)c2ccc(C)c([N+](=O)[O-])c2)c2ncccc2c1` (centres undefined) came in with an IFI of 1.83%.
With `CCN1CCN(CCCNC(=S)Nc2ccc3nc(N4CCCC4)cc(C)c3c2)CC1`, the IFI stood at 7.69%.
The compound `c1cc(-c2cccc3cccnc23)nc(N2CCN(CCN3CCCC3)CC2)c1` yielded an IFI of 4%.
Take `CCOc1ccccc1C1C(C#N)=C(SCC(=O)Nc2ccc(Cl)cc2)NC(C)=C1C(=O)Nc1ccccc1` (centres undefined): the IFI was found to be 3.61%.
For `Cc1cc2ncn(N=Cc3cccnc3)c2cc1C`, the IFI was 0%.
In turn, `CCOC(=O)N1CCN(C(=O)CCCCn2c(=S)[nH]c3ccsc3c2=O)CC1` displayed an IFI of 2.3%.
In turn, `CCN1C(=Cc2sc3ccc(OC)cc3[n+]2CC)C=Cc2ccccc21` displayed an IFI of 25%.
Consider `CCc1ccc(NC(=O)c2ccc(F)c(S(=O)(=O)NC3CCCC(C)C3C)c2)cc1` (centres undefined), for which the IFI was found to be 0%.
Turning to `S=C(NCc1ccco1)NN=CC=NNC(=S)NCc1ccco1`, the IFI amounted to 11.7%.
Regarding `O=S(=O)(c1ccc(Cl)cc1)N1CCN(C(=S)NCC2CCCO2)CC1` (centres undefined), the IFI turned out to be 4.54%.
Take `CSc1nnc(CN2CCSCC2)n1C`: the IFI was found to be 0%.
For the compound `CC(=O)Oc1ccccc1-c1nc2ccccn2c1NC(C)(C)CC(C)(C)C`, the IFI stood at 3.77%.
With `COc1ccc(NC2=C(c3ccc(C(F)(F)F)cc3)C(=O)c3ccccc32)cc1`, the IFI came to 0%.
Take `O=C(NC(=C(Cl)Cl)[P+](c1ccccc1)(c1ccccc1)c1ccccc1)c1ccc(F)cc1`: the IFI was 27.3%.
Consider `CC(C)(C)CC(C)(C)Nc1c(-c2ccccc2OC(=O)C(c2ccccc2)c2ccccc2)nc2ccccn12`, for which the IFI amounted to 4.76%.
`COc1cc(OC)cc(C(=O)N(CCCC(C)Nc2cc(OC)cc3cccnc23)Cc2ccc(Cl)cc2)c1` (centres undefined) had an IFI of 3.67%.
`CC(=O)c1ccc(OCc2cc(C(=O)N3CCCCC3c3cccnc3)no2)cc1` (centres undefined) yielded an IFI of 0%.
As to `Cc1cc(Nc2cc3ccccc3cc2O)n2ncnc2n1`, the IFI stood at 4.17%.
The compound `Cc1ccc2cc3c(N)c4c(C)ccc(C)c4nc3nc2c1` displayed an IFI of 7.21%.
In the case of `COc1cc(NC(C)CCCN(Cc2ccc(OC)c(OC)c2)C(=O)c2ccccc2C)c2ncccc2c1` (centres undefined), the IFI was determined as 0.926%.
The figure for `Cc1nnc2sc(SCc3cccc([N+](=O)[O-])c3)nn2c1=O` is 0%; for `COc1ccc(C2=C(Nc3ccc4oc5ccccc5c4c3)c3ccccc3C2=O)cc1` it is 0%.
`CC(C)(C)c1ccc(-c2c[n+](-c3ccccc3)c3n2CCCS3)cc1` yielded an IFI of 23.1%.
`C(=C1\C(c2ccccc2)=Nc2ccccc21)/c1c(-c2ccccc2)[nH]c2ccccc12` came in with an IFI of 21.4%.
`CCn1c(C=CN(C(C)=O)c2ccccc2)[n+](CC)c2cc(Cl)ccc21`: the IFI is 0%.
`O=c1nc(/C=C/c2ccc(Cl)cc2)oc2ccccc12` yielded an IFI of 2.38%.
Consider `O=C(Nc1ccc(C(F)(F)F)cc1)c1cc(S(=O)(=O)NC2CCCCCC2)ccc1F`, for which the IFI amounted to 0%.
Next, `COc1cc(NC(C)CCCN(Cc2ccc(Cl)cc2)C(=O)C(C)C)c2ncccc2c1` (centres undefined): 5.61%; `N/C(=N\C(=O)c1nc(Cl)c(N)nc1N)NCc1ccccc1`: 2.22%.
`Cc1cc(N2CCCC2)nc2ccc(NC(=S)NCCCN3CCc4ccccc4C3)cc12` had an IFI of 11.8%.
Consider `CCCn1c(=O)c2[nH]c(C3CCCC3)nc2n(CCC)c1=O`, for which the IFI is 1.41%.
Next, `CCOc1ccc2nc3cc(NCc4ccco4)ccc3c(N)c2c1`: 7.46%; `CC1=C(C(=O)OCCC(C)C)C(c2ccccc2)C(C(=O)OCCC(C)C)=C(C)N1`: 0%; `CCOC(=O)N1CCC(NC(=O)c2c(C)nn(-c3cccc(C)c3)c2-n2cccc2)CC1`: 0%.
In turn, `O=C(NNc1nc(-c2cc3ccccc3oc2=O)cs1)c1ccccc1` displayed an IFI of 0%.
The figure for `CCOC(=O)C1=C(C)NC2=C(C(=O)CC(c3ccc(OC)cc3)C2)C1c1cccc(F)c1` (centres undefined) is 4.65%; for `Cc1ccc(C=Cc2ccc(N(C)C)cc2)[n+](C)c1` it is 15.4%; for `COc1ccccc1CNC(=O)C1c2ccccc2C(=O)N2CCc3ccccc3C12` (centres undefined) it is 0%.
As for `Oc1ccc2ccccc2c1CNc1nc2ccccc2[nH]1`, the IFI turned out to be 15.4%.
Compound `CC(C)(C)NC(=O)C(c1ccncc1)N(Cc1ccccc1Cl)C(=O)c1ccc(-c2ccccc2)[nH]1` (centres undefined) had an IFI of 5.41%.
